Results: the antibiotic and cytotoxicity screens of Wong et al. (2023)
This is one part of the list.

Experiments:
HSkMC = human skeletal muscle cells; test: cytotoxicity call (relative viability < 0.9); conditions: 10 µM
HepG2 = test: cytotoxicity call (relative viability < 0.9); conditions: 10 µM
S. aureus RN4220 = test: growth inhibition call (relative growth <= 0.2); conditions: 50 µM

Row | SMILES | cytotoxicity call (HSkMC) | cytotoxicity call (HepG2) | growth inhibition call (S. aureus RN4220)
1 | O=C(C[C@H]1CC[C@@H]2[C@H](COC[C@@H](O)CN2C(=O)Nc2ccc(C(F)(F)F)cc2)O1)NCc1ccncn1 | inactive | inactive | inactive
2 | CCCN(C)C[C@H]1OCCCC[C@H](C)Oc2ccc(NC(=O)C3CCCCC3)cc2C(=O)N([C@H](C)CO)C[C@H]1C | inactive | inactive | inactive
3 | Cc1cc(C(=O)Nc2cccc3c2O[C@@H](CN(C)Cc2ccc4c(c2)OCO4)[C@H](C)CN([C@H](C)CO)C3=O)n(C)n1 | inactive | inactive | inactive
4 | Brc1ccc(-c2cc3n(c2)CCc2ccccc2-3)cc1 | inactive | inactive | inactive
5 | C[C@@H]1CN([C@H](C)CO)C(=O)Cc2cc(NC(=O)Nc3cccc4ccccc34)ccc2O[C@H]1CN(C)Cc1ccc(C(=O)Nc2ccccc2N)cc1 | inactive | inactive | inactive
6 | O=C(C[C@@H]1C=C[C@@H](NC(=O)c2ccc(F)cc2)[C@@H](CO)O1)NCc1ccncn1 | inactive | inactive | inactive
7 | CO[C@H]1CN(C)C(=O)c2cc(NC(=O)Nc3cccc(Cl)c3)ccc2OC[C@H](C)N(C(=O)Nc2c(C)noc2C)C[C@H]1C | inactive | inactive | inactive
8 | Cc1ccc(S(=O)(=O)Nc2ccc3c(c2)CC(=O)N([C@H](C)CO)C[C@H](C)[C@@H](CN(C)Cc2ccc(Oc4ccccc4)cc2)O3)cc1 | inactive | inactive | inactive
9 | Cc1ccc(S(=O)(=O)Nc2ccc3c(c2)C(=O)N([C@@H](C)CO)C[C@H](C)[C@@H](CN(C)CC2CC2)O3)cc1 | inactive | inactive | inactive
10 | CCC(=O)Oc1ccc2c(c1)CCC1C2CCC2(C)C1CC(OC(=O)CC)C2OC(=O)CC (centres undefined) | inactive | inactive | inactive
11 | Cc1n[nH]c(C)c1S(=O)(=O)N1CCCC1 | inactive | inactive | inactive
12 | C[C@@H]1CN([C@@H](C)CO)C(=O)c2cc(-c3cccc(C#N)c3)cnc2O[C@H]1CN(C)C(=O)c1cnccn1 | inactive | inactive | inactive
13 | C[C@H](O)C#Cc1ccc2c(c1)O[C@@H](CN(C)C(=O)CN(C)C)[C@H](C)CN([C@H](C)CO)S2(=O)=O | inactive | inactive | inactive
14 | CC12CCC3c4ccc(O)cc4CCC3C1CCC2O (centres undefined) | inactive | inactive | inactive
15 | C[C@H](CO)N1C[C@H](C)[C@H](CN(C)Cc2ccc(Cl)c(Cl)c2)Oc2c(NS(=O)(=O)c3cccs3)cccc2C1=O | inactive | inactive | inactive
16 | Cc1noc(C)c1NC(=O)N(C)C[C@@H]1Oc2c(NC(=O)NC(C)C)cccc2C(=O)N([C@@H](C)CO)C[C@@H]1C | inactive | inactive | inactive
17 | C[C@H]1CN([C@@H](C)CO)C(=O)Cc2cc(NC(=O)Cn3cnnn3)ccc2O[C@@H]1CN(C)S(=O)(=O)c1ccccc1 | inactive | inactive | inactive
18 | C[C@@H]1CN([C@@H](C)CO)C(=O)c2cc(NC(=O)CCN3CCOCC3)ccc2O[C@@H]1CN(C)S(=O)(=O)c1cccs1 | inactive | inactive | inactive
19 | CCS(=O)(=O)N1CC[C@]2(CC1)CN([C@H](CO)c1c2c2ccc(cc2n1C)OC)C(=O)c1cccc(c1)F | inactive | inactive | inactive
20 | CCCCCCCCCCCCCC(=O)OC(C)C | inactive | inactive | inactive
21 | O=C(CCn1ccc(=O)[nH]c1=O)Nc1ccc2c(c1)NC(=O)CO2 | inactive | inactive | inactive
22 | CCOC(=O)c1cnn2c(N)c(C#N)cnc12 | inactive | inactive | inactive
23 | C[C@@H]1CN([C@H](C)CO)C(=O)c2cc(NC(=O)c3ccccc3)ccc2O[C@@H](C)CCCCO[C@H]1CN(C)C(=O)Nc1cccc2ccccc12 | inactive | active | inactive
24 | OC[C@@H]1CCCCN1 | inactive | inactive | inactive
25 | C[C@@H]1CN([C@@H](C)CO)S(=O)(=O)c2ccc(C3=CCCC3)cc2O[C@H]1CN(C)S(=O)(=O)c1ccc(F)cc1 | inactive | inactive | inactive
26 | C[C@@H]1CN([C@@H](C)CO)C(=O)c2cccc(NS(=O)(=O)c3ccc(F)cc3)c2O[C@H]1CN(C)Cc1ccc(-c2ccccc2)cc1 | inactive | inactive | inactive
27 | COc1ccc(NC(=O)Nc2ccc3c(c2)CC(=O)N([C@H](C)CO)C[C@@H](C)[C@@H](CN(C)C(=O)Nc2cccc4ccccc24)O3)cc1 | inactive | inactive | inactive
28 | C[C@@H]1CN([C@@H](C)CO)C(=O)c2cc(NC(=O)Nc3ccc(C(F)(F)F)cc3)ccc2O[C@@H](C)CCCCO[C@H]1CN(C)S(=O)(=O)c1ccc(F)cc1 | inactive | inactive | inactive
